Experimental data from PMC10726135.
This is one part of the list. At the low end of the ranking, values are background and their order means little. The protein was read in a cell extract, so binding may be indirect.

molecular target: T1, HNF4alpha8 (COS-7 nuclear extract) (UniProt P41235-5); experiment: protein-binding microarray; details: COS-7 nuclear extract on double-stranded Agilent 4x180k PBM; binding buffer, salt, pH and temperature not given; high values mean tight binding; double strand, one strand shown; sequences stand for … in …GCCTAGGGAGATTAGAGTATCGGTCGA
T1 sequence: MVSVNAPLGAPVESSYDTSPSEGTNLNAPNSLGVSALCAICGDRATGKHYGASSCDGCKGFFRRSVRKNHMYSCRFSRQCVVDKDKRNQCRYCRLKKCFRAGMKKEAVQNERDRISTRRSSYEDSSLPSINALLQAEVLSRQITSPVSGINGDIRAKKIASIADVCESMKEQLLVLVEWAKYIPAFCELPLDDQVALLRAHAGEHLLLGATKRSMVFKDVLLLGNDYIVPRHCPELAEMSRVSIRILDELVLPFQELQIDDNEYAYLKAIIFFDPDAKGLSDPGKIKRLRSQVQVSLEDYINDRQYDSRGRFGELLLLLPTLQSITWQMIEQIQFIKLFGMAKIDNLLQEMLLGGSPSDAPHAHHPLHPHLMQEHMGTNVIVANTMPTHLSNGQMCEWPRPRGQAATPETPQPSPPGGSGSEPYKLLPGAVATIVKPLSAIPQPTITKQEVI

Sequence	binding signal (log2 normalized intensity)
CCCTCTCTTTCTGGAACCTACAGCTGGGGC	0.3
CCTGACCTGCCCTTTGTCCCTCCTGCTAGT	3.93
ACCTTTTCCCTCCCTCCCAGTACAAAGTTC	5.74
GGCTTCTGGACTATGCCTTGAACTTTAAGG	2.85
GTCTGTTGACCTTTGGCCAAGGGCAGTGTT	7.73
TGACCGATAACCCTCCTGAACATAATTGCA	-1.27
GTTTTCACTGCTGGGTTTCTTCCCTAATGG	0.834
GTTAAAGCACAGTGTCTTTGTTTGGAAAAG	0.547
CATCATTCCGTGACTGAGCTCGCGCCGGGC	-1.38
TTTGGTGTTACCTTTGGACTGTCCTTTGCT	5.06
GTCGGGAGGTAGGGGTGGCGGGTTGGAGGT	-0.103
GCTTTGAGACACCTGGCCAAGTACAGCCTG	-1.39
GCACAGCCAGAACTGAGCCCTGGTTTATCT	-1.19
CAGGTTCAAATCTAAACCTAGCAGCCTGCC	-1.28
CAGCAGAGGGAGCCGCTGTGTGGGAAGAGG	-1.17
TGGTAAAGTCAATAATCTAGAAACCAGTGA	-1.06
GAGCTCAGTCACAGCAGTGGACTTTGACCT	11.7
GCAACAGAGGAGCATGGACTTCTGAGCTTG	1.07
ATACAGAATCAATGCCTGATTCCAAAGTCC	6.36
GTTTCCTTTGAACTCTGCATCCAGGCATCC	1.34
GCTAGACTTGGACCAGCTTTTGGAAGGACT	0.0118
CAAGAAAAGGTTCCTATGTAAACACAAGAT	-1.35
GTTTTCTGACGCAACAGAAAACTCAACTTC	-0.978
AGAGTCCAAGATACCACTGATAAGGTTCCA	0.211
CTTCGCTCTCTTCTGGTGATCAAACAAAAG	-0.67

Sequence	binding signal (log2 normalized intensity)
AAACAGAGGACAGTTGTGTTTGTTGACCAC	1.77
GGGTGAAAGGGACTCATCTCCAAACGAGAC	-1.21
CCTTCTGTTAGAATGTATTGAGAAGAAACC	0.897
GCAGCTCTTTACAAAGCCCATGCTGGACCC	4.69
CAAAATATCTCACTCCCACACTGGTAACCT	0.32
CTTTGCTTTGAGAAAGCAAAGTCCCTGGGG	1.52
TCTCATGGCTCATTTTGGGCATCTGCAGGG	1.23
AGTGTAAGATAAAAATCAGAGATCAAGATA	-1.42
CTTTGACCCTGTTTTGTAAACTCCCTTTGA	2.04
ACACAGGACTTGATCCAGGGCAAAGGTCAT	7.91
AGATAGCATTCCAAGAGAGCAAAGTGCTTT	1.21
GCCAGAACTGAGCCCTGGTTTATCTGTTGT	0.861
TTACAATGGAAAGATTAGGTCAAAGGGCGT	6.14
CCTGGGCATGTCTGCTCCCTGAGTTTCTGC	1.07
ACCAAAGCAGCTAGCAAATACAAGGACACT	-1.28
GGCAGAGCATAGAAGTAAGAAATCAGGAGC	-1.35
GGAGGTAGGGCAAGAGGACAAGGTTCAAAA	3.23
TGCCCTGAGCCGCCAGGCGGGTTCTGCCAT	-1.38
GGTTGCAAAAACAATCAGGGGTTAGGGTGA	-1.08
GGTCCTAAGACTAACCTTTGACCATCCACG	6.44
AGATCTGGATATGCCTGGGGTTCCAGTTAC	0.546
AAAATAGGGATTAAGCAGATGTTTCTGCAA	-0.869
GAAGCAATCAAGCAATCATATATGCATTTG	-0.715
TTTAAGGATCCAGACGGATTCCACGGGGGT	-0.402
AAACCTCCCCCAAACCAAAGAGAAATGGTG	3.41

Sequence	binding signal (log2 normalized intensity)
GAAAGTCATGCTGAAGTACAGATTCCTGTA	0.545
CAAAGGTCATGGCAACAGTTTTCTGGGATG	3.46
GTCTTCATGGGCAAATAAAGCTAACCAGCT	-1.16
GAGCAGGGATTGGGGATGCTCAAAGTACAC	2.81
TATCAGAAGCTTACATATCACTTCCATCAG	-1.33
GCCACCCTGAAGGCTGAGCCTAGGAGTTCA	-0.782
AAAACTGGCCCTGATTTCAAAGTTCAGTTT	3.53
AGCCGTTTCTGTCCAGAGTTTAAATGACCT	3.77
TAAGGTCCTGTTTGTCAGCATCTTCACCGT	0.591
CATGTGCAAAAGCACCCAAGGCTCTGCACA	-1.29
TATCAGTAGTTGCAAATATTGCAGTGTAGA	0.767
CATAGGAACAAAGGTTGGTGTGAACCAGGG	1.73
ATATTTTCTTTGTGCTATTTTTGGCTTGGT	1.96
GCCTTCGCACCTGCCTGTCTCACCTCGCTA	-1.3
ATCTGACCTTTGGTTAACTTCTTAACTTGG	3.5
CATAAAACCTAGACAGAAGCTTTCTGAGAA	-1.34
AGTGAGACGTTCCAAACCGGTCTTTCCACT	-1.16
ACCCTTGAACCTTCTTCTTGCAGTCCACAT	2.12
CAAAGGATACAGATAAATAAATCAAGATCA	-1.27
GGTGGTATGTGTGTGCTTTAACAAGGTGTG	1.77
TTCCTGCAGGCCCATCTGGGACTTCAAAGC	-1.1
GTCCAAACCCCTATGTTTAATGTATAAACC	2.01
AGCCCAATAAAATCTGGCAGCTTAAAAATG	-1.18
ATCTCCCAGGTCTCCTCCACAGAGCACAGG	-1.34
TTACTGGGGCCCATTGTATGAGGGTGAAGT	0.972

Sequence	binding signal (log2 normalized intensity)
ATTCCTTGGACTCTGCCACTGGTTTGCACA	1.82
TTTGCCTCCCTGCATTCCATTTCTGCCCCT	4.17
TCAAAGAACAAGTATCCTGGTAGTGCGACA	-1.31
ATGGGGTGGGGCAGAAAGGGCATGGATTTA	-1.29
CCAGATATAGGGGAGGTCCTAAAGAGGATA	-1.31
CGCTCCCCGACCTCCTGCTGCAGCTCTGGG	-0.577
TCTGCTCCCCCTGCCCTTCGTCCTGAGCAG	2.59
CACATGTACACAGGAATATCAACAGGAGCA	-1.35
TCTGTTTTAGTTGAGTGTGACAAGAAAGAC	0.382
TGCCCTGGACATATTTGTCTTCCTATCTCC	0.97
TTACTTCCACATGTGGGGAAACTGGACTGT	3.6
TATATGACTCTAGATTGTTTGTTCTTGCTA	-1.17
TTTTTGATTACCTTAGGGGGAAACAAAAGA	-1.16
TCTTCACCGTAAAGCCACCCCTTTCTCCTC	3.29
TCACCCTCTCCACCCCCATGCAAGTTCCCA	5.59
AGGATTTTATTCAGGTGGCCACTGGCCCAG	-0.981
TGCAACATACTGAAAAAGGGTTGTGCAAAC	0.0709
ACAGGGAGTCTGTTGCAAGCAATGGAGAGG	-1.33
CGAAAGCCGGTTCCCGCCCAAGGAGACAGG	-1.22
CAAATATTAGAACAAACGACGCTCCTATCA	-1.17
ATTTCCAAAAGGTACCACTGTTTGCAGCTG	-1.34
GCAGCCTCCAAGATAAAGGGTCAGATTGTA	1.96
TTCTGCTATCTGCCTGCAGGAGAGAGCAAA	-1.22
TTAACAAAATTCAACAAGACCCTGCCCTTT	4.08
CCTGGAATGACAAGAATTGGAACCCTGCTG	-0.884

Sequence	binding signal (log2 normalized intensity)
AGGTCAACTGCCCTCTCAAATTACAAGGAG	-0.902
TTCGGGGCACTGCTCCCTGCCCCTACCCCC	5.02
CCTTAAGAGTTAATAACAGACCATGCCATG	-1.27
CAAAGCATAGCAAGAGTGACCTTTGCTCCA	9
TCAGACTGGTGTAGTGGGGAGGGCATGGAC	0.343
TGTCTGCTGAGAGATTCCTCTGCACAATAA	-0.694
CTATGGAACATGGACTTTGAACCTCTCTTC	9.09
TCCAAAGTCCAGGTGCTTTCTTCTTGATCA	2.62
TGCCCTGGGTAAACAGACCTCTCTCTCCCC	2.02
AGATAACAAGGGCATGTAAAGGAGATTATC	-1.03
GCAGGCCCATCTGGGACTTCAAAGCGCAGC	-1.33
CCCAGACTGAATCACACTACTGGCTTTTCT	-1.29
TTCCACACAGGTTATCTCATTACTCTGCAT	-1.04
CAGCAGATAAGGCTAATCCTTACACAGCAG	-1.32
TTGCATGGTTGACATACTTCTGAGTTTTAT	1.68
TTGTTTACCTTGGTGTTTCTTTGATGTGAA	1.88
CAGTCTAAAGTAAATACCATTAGGGGGCAA	1.71
AGTATTTAGCTTCCTCCCTTGGAATGTGAC	1.84
GCTTGGCAAACATTTCACTTTGCTCCCTCC	2.18
ATTGCCGACCTCATGAGTAGAGAGCAATCA	-0.943
CAGCTTTTATGTCAAACCACTTCCCCTTTC	1.98
CCTGTTTGCTTCTGCTGTTTGTTTCACTAA	1.09
TGTCAGCTAGAGGCCCTGCATTAAACAAGA	-1.31
TCACTGACCTCTGCCCTACTGTATATCCTG	2.89
ACTTTGGTGGCTTTTGCTGACATGCTCTTG	0.777

Sequence	binding signal (log2 normalized intensity)
TCTCAAGTTCAGTCTTTATTGGTACGTTCC	1.33
CTCCCCCAGGCGACTGGGCCAGGAGCAGGA	2.92
AAACTTTATCTCCCTTGCTTTATCCGACCA	0.31
TTGAGGTTCACTGGGGAGACTCTCTCTCCT	-0.788
ATCTAAGGGCCTAGAAGAGTTCCTGACAAT	-1.3
TAACAGCTTCTGTTCGCAGACCTGCCAAAG	-1.3
GTGGGGGAGGAGACAGCTACGGAATGCTTC	-1.39
ATTCAGAACTTTGACCACCTACTGTTTGTG	2.47
TGGCTCATTTTGGGCATCTGCAGGGCAGCA	-1.29
AGCGGCCTTCCCCTTTTTCTGTAAAGCTTT	0.737
TTGCTCCCTGGGAACCCCTCCAGCATTCTC	2.3
ACACACAATAAGGACTTTGGACCGTCTTGT	8.19
CCTCAGTAAATGCTGGAGATGAGGCTCAGA	-1.32
GCACACAAAAAAAACCACTCTTATCAGGCC	-1.33
CCAGAGTAACTATGGGGCAAAGTGCAAGCA	4.93
GGGCCTTTCCAGCAAATCCCAATTCACTGA	-1.38
TCAGCAGAGGACAGAAGAAGGAAAAGGCCT	-1.27
AGGCCTTCCTATCTCTACTTGCCGAAACAT	1.12
CCATGACCTTTGTACTAATGATTTGTAAAT	6.03
GAACTCTAAGCAGCGAAGCTGTGTCAGGCA	-1.29
